Reference: PubChem BioAssay (Tox21)
Several values for one entry are separate records, joined by “and”; a condition that tells them apart may be missing. Equal entries are not always repeated. The inconclusive results got no clear call from the source; some entries with a clear call stand among them for comparison. Where the call is inconclusive, the potency comes from a doubtful curve fit. Some structures have more than one record in an assay (separate samples or runs), and their calls can disagree. Activity calls are given as the source filed them. Unless noted, calls follow the shape of the dose curve; as a rule, active = well fitted curve in the direction sought with a large enough effect in the repeat runs; inconclusive = weak or mixed curves; inactive = no such curve, though single readings can be large; an effect the other way counts as inactive or inconclusive.

Assays:
[1] = qHTS assay to identify small molecule antagonists of the sonic hedgehog signaling (Shh) pathway - cell viability counter screen (AID 1259367); also: nearly all actives have a fitted effect of over 55% in size
Procedure, shortened: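 Using CellTiter-Fluor, viability of Gli1-Luc reporter 3T3 cells is read by fluorescence in the wells used for the Shh luciferase assay. Treatment lasts 23 hr with conditioned medium, then reagent 1 hr at 37C.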

[2] = qHTS assay to identify small molecule antagonists of the sonic hedgehog signaling (Shh) pathway (AID 1259369; calls by dose curve; also: nearly all actives have a fitted effect of over 45% in size; as to activity change, negative = inhibition: % is scaled to controls: 0 for no effect and ±100 for the full control effect)
Procedure, shortened: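 3T3Gli1-Luc, conditioned-medium-stimulated, 24hr cpd, 37C/5% CO2; Gli1-driven firefly Luc luminescence after 30min RT with luciferase reagent. Cells plated 4hr before cpd.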

[3] = qHTS assay to identify small molecule agonists of the estrogen receptor beta (ER-beta) signaling pathway - cell viability counter screen (AID 1259380); also: nearly all actives have a fitted effect of over 30% in size
Procedure, shortened: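 HEK293T ER-beta-UAS-bla; 2% CS-FBS; 6 hr pre-plate, 16 hr cpd at 37C/5% CO2; LiveBLAzer read first, then CellTiter-Glo 30 min RT, luminescence.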

[4] = qHTS assay to identify small molecule antagonists of the estrogen receptor beta (ER-beta) signaling pathway - cell viability counter screen (AID 1259382); also: nearly all actives have a fitted effect of over 55% in size
Procedure, shortened: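 Cells: ER-beta-UAS-bla HEK293T, 2,000/well, 2% CS-FBS, 6 hr settle. Cpd + E2 (1nM final), 16 hr, 37C/5% CO2. Bla FRET substrate 2 hr RT, then CellTiter-Glo 30 min RT, luminescence.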

[5] = qHTS assay to identify small molecule agonists of the progesterone receptor (PR) signaling pathway - cell viability counter screen (AID 1346799; calls by dose curve; also: nearly all actives have a fitted effect of over 45% in size)
Procedure, shortened: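 Multiplexed viability read: CellTiter-Glo luminescence, 30 min RT, following LiveBLAzer FRET measurement on PR-UAS-bla HEK293T cells exposed to compounds 16 hr.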

[6] = molecular target: Estrogen receptor beta (Homo sapiens) (UniProt Q92731); experiment: qHTS assay to identify small molecule antagonists of the estrogen receptor beta (ER-beta) signaling pathway (AID 1259378; active = well fitted inhibition curve with a large enough effect in the signal ratio in the repeat runs, not every such curve was filed as active; inconclusive = weak or mixed curves, or effect the other way; inactive = no such curve, though single readings can be large or run the other way; the % refers to the signal ratio; as to activity, negative = inhibition: % is scaled to controls: 0 for no effect and ±100 for the full control effect); settings: ER-beta-UAS-bla HEK293T, beta-lactamase FRET ratio, 16 h
Procedure, shortened: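 Antagonist mode: compounds added to beta-lactamase reporter HEK293T ER-beta-UAS cells stimulated with E2 (1nM final), 16 hr at 37C. LiveBLAzer B/G FRET substrate, 2 hours room temperature, fluorescence read-out.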

[7] = qHTS assay to identify small molecule agonists of the androgen receptor (AR) signaling pathway in the presence of an antagonist - cell viability counter screen (AID 1259379); also: nearly all actives have a fitted effect of over 25% in size
Procedure, shortened: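 Cells: MDA-kb2 (MMTV-luc, AR and GR elements), 3,000/well, 5 hr settle. Added: nilutamide 3.0uM final, then compounds (15 conc.). Incubation: 16 hr, 37C, no CO2. Read-out: CellTiter-Fluor, 1 hr, fluorescence.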

[8] = qHTS assay to identify small molecule agonists of the estrogen receptor alpha (ER-alpha) signaling pathway in the presence of an antagonist - cell viability counter screen (AID 1259386);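 also: cells exposed to compounds for 22 h at 37 °C before the viability read; nearly all actives have a fitted effect of over 30% in size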
Procedure, shortened: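 VM7Luc4E2, stripped-serum pre-culture 5 d; 24hr plating; +ICI-182,780 10.0nM final; cpds 15 conc, 22hr, 37C/5% CO2; CellTiter-Fluor added at 21hr, fluorescence 1hr later.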

[9] = molecular target: Progesterone receptor (Homo sapiens) (UniProt P06401); experiment: qHTS assay to identify small molecule antagonists of the progesterone receptor (PR) signaling pathway (AID 1346795; active = well fitted inhibition curve with a large enough effect in the signal ratio in the repeat runs, not every such curve was filed as active; inconclusive = weak or mixed curves; the % refers to the signal ratio; as to activity change, negative = inhibition: % is scaled to controls: 0 for no effect and ±100 for the full control effect); settings: PR-UAS-bla HEK293T, beta-lactamase FRET ratio, 16 h; activity change, negative = inhibition: at 92.4 µM (top of the series) unless noted
Procedure, shortened: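 Stimulus R5020 at 1 nM final; cells HEK293T PR-UAS-bla; medium with 2% charcoal-stripped FBS; compound exposure 16 hr at 37C, 5% CO2; detection by FRET beta-lactamase substrate, 2 hr, room temperature.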

[10] = qHTS assay to identify small molecule antagonists of the progesterone receptor (PR) signaling pathway - cell viability counter screen (AID 1346798); also: nearly all actives have a fitted effect of over 50% in size
Procedure, shortened: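 In the same plates used for the beta-lactamase readout, cell viability of compound- and R5020-treated PR-UAS-bla HEK293T cells (16 hr, 37C) was assessed by CellTiter-Glo luminescence.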

[11] = molecular target: Estrogen receptor beta (Homo sapiens) (UniProt Q92731); experiment: qHTS assay to identify small molecule agonists of the estrogen receptor beta (ER-beta) signaling pathway (AID 1259377; active = well fitted activation curve with a large enough effect in the signal ratio in the repeat runs, not every such curve was filed as active; inconclusive = weak or mixed curves, or effect the other way; the % refers to the signal ratio; as to activation: % is scaled to controls: 0 for no effect and ±100 for the full control effect); settings: ER-beta-UAS-bla HEK293T, beta-lactamase FRET ratio, 16 h; activation: at 92.4 µM (top of the series) unless noted
Procedure, shortened: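 Reporter cells (HEK293T, ER-beta-UAS-bla) receive compounds or DMSO after a 6 hr pre-incubation. They then incubate 16 hr at 37C/5% CO2, and fluorescence from LiveBLAzer B/G substrate is measured after 2 hours at room temperature.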

[12] = molecular target: Thyrotropin receptor (Homo sapiens) (UniProt P16473); experiment: qHTS assay to identify small molecule antagonists of the thyroid stimulating hormone receptor (TSHR) signaling pathway (AID 1259385; calls by dose curve; also: nearly all actives have a fitted effect of over 20% in size); settings: TSHR-HEK293 cAMP HTRF, TSH-stimulated antagonist mode; activity change, negative = inhibition: at 92.4 µM (top of the series) unless noted
Procedure, shortened: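 Antagonist mode: compound-treated TSHR-expressing HEK293 cells were stimulated with 1.5 ng/mL TSH (final) in presence of Ro20-1724 for 30 min at RT. HTRF cAMP detection after 1 h; each compound tested at 15 concentrations, triplicate.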

[13] = molecular target: Progesterone receptor (Homo sapiens) (UniProt P06401); experiment: qHTS assay to identify small molecule agonists of the progesterone receptor (PR) signaling pathway (AID 1346784; calls by dose curve; also: nearly all actives have a fitted effect of over 30% in size); settings: PR-UAS-bla HEK293T, beta-lactamase FRET ratio, 16 h; activation: at 92.4 µM (top of the series) unless noted
Procedure, shortened: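 Reporter assay, GripTite PR-UAS-bla HEK 293T cells: 16 hr exposure to DMSO-dissolved compounds at 37C, 5% CO2, in steroid-depleted (2% charcoal-stripped FBS) medium; beta-lactamase measured by FRET fluorescence.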

[14] = qHTS assay to identify small molecule antagonists of the TGF-beta/Smad signaling pathway - cell viability counter screen (AID 1346824); also: nearly all actives have a fitted effect of over 50% in size
Procedure, shortened: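 Cytotoxicity counter-screen run in the same wells as the beta-lactamase Smad reporter read: CellTiter-Glo luminescence after 30 min at room temperature. HEK 293T SBE-bla cells had 5 hr compound exposure at 37 C with TGF-beta1 (0.25 ng/mL stock).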

[15] = activity, negative = inhibition: at 92.4 µM (top of the series) unless noted
Potency is read from the fitted curve at half-maximal effect; tags tell the direction and shape of the fitted curve or compound fluorescence and quenching.

Chain of UniProt P16473 (P16473 whole entry, looked up): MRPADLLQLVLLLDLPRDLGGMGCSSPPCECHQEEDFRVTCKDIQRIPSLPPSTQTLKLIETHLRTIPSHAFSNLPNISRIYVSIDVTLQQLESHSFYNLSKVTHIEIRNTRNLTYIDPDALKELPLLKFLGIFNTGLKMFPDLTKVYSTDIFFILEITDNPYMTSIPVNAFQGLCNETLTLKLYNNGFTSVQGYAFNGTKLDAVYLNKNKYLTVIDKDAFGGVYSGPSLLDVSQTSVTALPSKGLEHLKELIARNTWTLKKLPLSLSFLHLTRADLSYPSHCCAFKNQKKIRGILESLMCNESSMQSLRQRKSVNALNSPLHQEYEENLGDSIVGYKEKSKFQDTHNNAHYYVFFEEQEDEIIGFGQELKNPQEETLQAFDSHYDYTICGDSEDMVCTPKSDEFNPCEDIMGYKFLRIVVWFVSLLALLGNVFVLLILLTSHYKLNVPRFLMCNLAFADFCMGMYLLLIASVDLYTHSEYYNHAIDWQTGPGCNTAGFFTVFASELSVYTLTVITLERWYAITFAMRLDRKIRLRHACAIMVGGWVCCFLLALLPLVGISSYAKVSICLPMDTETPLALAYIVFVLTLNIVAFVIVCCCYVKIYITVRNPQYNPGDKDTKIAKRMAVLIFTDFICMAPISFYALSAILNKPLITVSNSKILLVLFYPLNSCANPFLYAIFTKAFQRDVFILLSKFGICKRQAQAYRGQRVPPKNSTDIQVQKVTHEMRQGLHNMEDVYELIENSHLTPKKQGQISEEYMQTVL
Chain of UniProt Q92731 (Q92731 whole entry, looked up): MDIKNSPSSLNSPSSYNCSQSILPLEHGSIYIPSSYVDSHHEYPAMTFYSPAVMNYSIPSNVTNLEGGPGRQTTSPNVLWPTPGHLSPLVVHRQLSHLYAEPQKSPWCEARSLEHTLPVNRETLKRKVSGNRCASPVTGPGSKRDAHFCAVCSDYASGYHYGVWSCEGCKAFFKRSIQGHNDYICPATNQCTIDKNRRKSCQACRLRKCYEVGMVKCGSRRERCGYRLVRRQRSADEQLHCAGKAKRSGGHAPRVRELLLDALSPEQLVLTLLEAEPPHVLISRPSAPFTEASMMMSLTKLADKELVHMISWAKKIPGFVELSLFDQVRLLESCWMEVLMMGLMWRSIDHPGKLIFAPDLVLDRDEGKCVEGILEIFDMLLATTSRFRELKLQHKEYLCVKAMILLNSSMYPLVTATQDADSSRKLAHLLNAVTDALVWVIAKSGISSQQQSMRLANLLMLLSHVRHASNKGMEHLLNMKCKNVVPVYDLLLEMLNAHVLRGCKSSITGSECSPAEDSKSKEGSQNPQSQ
Chain of UniProt P06401 (P06401 whole entry, looked up): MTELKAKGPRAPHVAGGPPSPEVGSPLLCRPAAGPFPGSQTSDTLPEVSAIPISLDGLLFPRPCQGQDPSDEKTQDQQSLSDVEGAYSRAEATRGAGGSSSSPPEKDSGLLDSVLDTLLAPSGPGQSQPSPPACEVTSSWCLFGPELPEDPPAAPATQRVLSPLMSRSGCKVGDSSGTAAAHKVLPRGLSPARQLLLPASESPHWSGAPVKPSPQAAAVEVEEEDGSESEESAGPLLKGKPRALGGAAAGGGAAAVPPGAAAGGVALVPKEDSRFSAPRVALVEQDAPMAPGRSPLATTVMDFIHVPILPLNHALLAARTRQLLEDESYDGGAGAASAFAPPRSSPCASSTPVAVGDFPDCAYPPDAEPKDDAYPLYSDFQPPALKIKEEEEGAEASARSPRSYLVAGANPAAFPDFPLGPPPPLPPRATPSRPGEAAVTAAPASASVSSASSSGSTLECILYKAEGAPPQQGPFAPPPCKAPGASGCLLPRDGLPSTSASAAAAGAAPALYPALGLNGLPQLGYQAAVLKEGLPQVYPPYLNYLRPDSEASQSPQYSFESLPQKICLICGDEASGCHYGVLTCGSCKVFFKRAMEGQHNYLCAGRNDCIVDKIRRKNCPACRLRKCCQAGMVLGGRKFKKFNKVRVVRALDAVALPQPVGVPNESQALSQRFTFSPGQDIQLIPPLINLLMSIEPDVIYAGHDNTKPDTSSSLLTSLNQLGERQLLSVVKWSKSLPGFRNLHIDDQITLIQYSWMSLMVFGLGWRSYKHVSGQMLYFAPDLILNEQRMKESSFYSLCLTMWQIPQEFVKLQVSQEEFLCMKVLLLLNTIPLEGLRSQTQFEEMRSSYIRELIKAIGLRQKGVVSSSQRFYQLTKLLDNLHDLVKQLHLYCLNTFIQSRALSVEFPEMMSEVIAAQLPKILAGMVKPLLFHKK

## Oc1cc(Cl)ccc1Cl
[1]
  Potency: inactive
[2]
  Potency: inactive
[3]
  Potency: inactive
[4]
  Potency: inactive

## CC(C)NCC(O)c1ccccc1Cl (centres undefined)
[1]
  Potency: inactive
[2]
  Potency: inconclusive: 3.35 µM [inhibitor, partial curve, poor fit]
[5]
  Potency: inconclusive: 33.5 µM [cytotoxic, partial curve, poor fit]

## CCC(=O)C(CC(C)N(C)C)(c1ccccc1)c1ccccc1 (centres undefined)
[1]
  Potency: inconclusive: 27.1 µM [cytotoxic, partial curve] and inconclusive: 8.29 µM [cytotoxic, partial curve]
[2]
  Potency: active: 24.4 µM and inconclusive: 2.42 µM [inhibitor, full curve, poor fit] and inactive
[6]; [15]
  activity, negative = inhibition: inconclusive: -29.3%
[7]
  Potency: inconclusive: 48.8 µM [cytotoxic, partial curve]
[3]
  Potency: inconclusive: 54.1 µM [cytotoxic, single point] and inconclusive: 46.6 µM [cytotoxic, single point]
[8]
  Potency: inconclusive: 24.4 µM [cytotoxic, partial curve, poor fit] and inconclusive: 27.1 µM [cytotoxic, partial curve]
[9]
  Potency: inconclusive: 61.4 µM
[10]
  Potency: active: 54.7 µM and inconclusive: 60.7 µM [cytotoxic, single point] and inconclusive: 52.3 µM [cytotoxic, partial curve, poor fit]
[5]
  Potency: active: 43.5 µM and inconclusive: 48.2 µM [cytotoxic, partial curve, poor fit] and inconclusive: 41.5 µM [cytotoxic, partial curve]

## O=[N+]([O-])c1ccc(Oc2ccc(Cl)cc2Cl)cc1
[1]
  Potency: inconclusive: 68.9 µM [cytotoxic, single point]
[2]
  Potency: inconclusive: 68.9 µM [inhibitor, partial curve, poor fit] and inactive
[11]
  Potency: active: 61.4 µM
[6]; [15]
  activity, negative = inhibition: inconclusive: 20.9%
[6]; at 92.4 µM (top of the series)
  activity, negative = inhibition: inactive: 2.17%
[12]
  Potency: inconclusive: 68.6 µM [falling, single point]
[9]
  Potency: active: 15.4 µM and active: 9.69 µM

## CCOCn1c(-c2ccc(Cl)cc2)c(C#N)c(Br)c1C(F)(F)F
[1]
  Potency: inconclusive: 54.5 µM [cytotoxic, partial curve]
[11]
  Potency: inconclusive: 12.2 µM [rising, full curve, poor fit]
[6]; [15]
  activity, negative = inhibition: inconclusive: -42.1%
[12]
  Potency: inconclusive: 27.3 µM [falling, partial curve]
[13]
  Potency: inconclusive: 12.2 µM [inhibitor, full curve, poor fit]
[9]
  Potency: inconclusive: 12.2 µM [rising, full curve]
[10]
  Potency: active: 12.2 µM
[5]
  Potency: active: 12.2 µM
[14]
  Potency: inconclusive: 8.71 µM [cytotoxic, partial curve]

## O=NN(c1ccccc1)c1ccccc1
[1]
  Potency: inconclusive: 68.6 µM [cytotoxic, single point]
[2]
  Potency: inconclusive: 68.6 µM [inhibitor, single point]
[9]
  Potency: inactive

## COP(=S)(OC)SCn1nnc2ccccc2c1=O
[1]
  Potency: inconclusive: 67.3 µM [cytotoxic, partial curve, poor fit] and inconclusive: 68.6 µM [cytotoxic, single point]
[2]
  Potency: active: 30 µM
[6]; [15]
  Potency: inconclusive: 48.6 µM [partial curve]
  activity, negative = inhibition: inconclusive: -50.6%
[3]
  Potency: inconclusive: 75.5 µM [cytotoxic, single point] and inconclusive: 54.5 µM [cytotoxic, partial curve]
[4]
  Potency: inconclusive: 61.1 µM [cytotoxic, single point]
[9]
  Potency: inconclusive: 68.6 µM
  activity change, negative = inhibition: inconclusive: -39.1%
[5]
  Potency: inconclusive: 68.6 µM [rising, partial curve, poor fit]

## COCCOCCO
[1]
  Potency: active: 61.1 µM
[2]
  Potency: active: 27.3 µM
[11]
  activation: inconclusive: 4.22%
[6]; [15]
  activity, negative = inhibition: inconclusive: 47.5%
[3]
  Potency: inconclusive: 30.6 µM [rising, single point]
[12]
  Potency: inactive
[9]
  Potency: inconclusive: 27.3 µM [phenotype inactive, single point]
[10]
  Potency: inconclusive: 15.4 µM [rising, partial curve, poor fit]
[5]
  Potency: inconclusive: 12.2 µM [rising, full curve]
[14]
  Potency: inconclusive: 5.49 µM [cytotoxic, single point]
